The whole screen tested about 39,000 compounds, of which about 220 (0.56%) showed activity. The list shows a part of the results.

For 66 molecules, relative growth results are on record in the supplement of paper PMC9446081.
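Further: static incubation at 37 °C against the wild-type strain, values averaged over two biological replicates.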

This assay concerns Escherichia coli K-12 BW25113. Kind of assay: relative growth (OD600 normalised to plate interquartile mean) (fraction); higher = less growth inhibition, active = 0.2 or less. Particulars: 50 µM; LB; incubation time: overnight (16-24 h).
On to `COC(=O)CN(C)c1nnc(N)s1`, for which the relative growth is inactive: 0.997.

As to `Nc1cccc(-n2cc(CCC(=O)NO)nn2)c1`, the relative growth is inactive: 0.993.

With `CN(C)C(=O)c1ccc(-c2ccc3n(c2=O)C[C@H]2[C@H](CO)[C@@H](C(=O)NCCc4ccccc4)N[C@@H]32)cc1`, the relative growth is inactive: 1.02.

On to `NC1CCN(Cc2ccccc2)CC1`, for which the relative growth is inactive: 1.09.

For `CCNC(=O)N1CCC(O)CC1`, the relative growth is inactive: 0.966.

With `C[C@@H]1CCCCO[C@@H](CN(C)S(=O)(=O)c2cn(C)cn2)[C@@H](C)CN([C@@H](C)CO)C(=O)c2cc(NS(C)(=O)=O)ccc2O1`, the relative growth is inactive: 1.01.

Consider `O=C(NCCCl)N(CCCl)[N+][O-]`, for which the relative growth is inactive: 0.992.

`CCCCCCCCCCCCC[N+](C)(C)Cc1ccccc1`: the relative growth is active: 0.0319.

Take `N#CCN(CC#N)C(=O)c1ccco1`: the relative growth was inactive: 0.932.

As for `C[C@@H]1CCCCO[C@@H](CN(C)CC2CC2)[C@H](C)CN([C@H](C)CO)C(=O)c2cc(NC(=O)C3CCCCC3)ccc2O1`, the relative growth is inactive: 1.01.

On to `C[C@@H]1CN([C@@H](C)CO)C(=O)Cc2cc(NC(=O)Cc3cn(C)c4ccccc34)ccc2O[C@@H]1CN(C)S(=O)(=O)c1cn(C)cn1`, for which the relative growth was inactive: 1.01.

For the molecule `C[C@@H]1CCCCO[C@@H](CN(C)C(=O)c2ccccc2)[C@@H](C)CN([C@@H](C)CO)C(=O)c2cc(NC(=O)Nc3cccc4ccccc34)ccc2O1`, the relative growth is inactive: 0.995.

With `Nc1cccc(/C=C/c2ccccn2)c1`, the relative growth is inactive: 0.97.

Take `Nc1cccc(OCc2ccccc2)c1`: the relative growth was inactive: 0.931.

For the molecule `O=C(N[C@@H]1CC=CC[C@H](CC(=O)N(CCO)Cc2ccccc2)C(=O)NC[C@H](c2ccccc2)OC1=O)OCC1c2ccccc2-c2ccccc21`, the relative growth is inactive: 0.982.

In the case of `C[C@@H]1CN([C@H](C)CO)C(=O)c2cccc(N(C)C)c2O[C@H]1CN(C)S(C)(=O)=O`, the relative growth is inactive: 1.02.

Take `C[C@H]1CN([C@@H](C)CO)C(=O)c2cccc(NC(=O)c3nc4ccccc4s3)c2O[C@@H]1CN(C)C(=O)Nc1ccc(C(F)(F)F)cc1`: the relative growth was inactive: 0.772.

For `C[C@@H]1CN([C@@H](C)CO)C(=O)Cc2cc(NS(C)(=O)=O)ccc2O[C@H]1CN(C)C(=O)Nc1ccc(C(F)(F)F)cc1`, the relative growth was inactive: 1.01.

For `C[C@@H]1CCCCO[C@H](CN(C)C(=O)NC2CCCCC2)[C@@H](C)CN([C@H](C)CO)C(=O)c2cc(NS(=O)(=O)c3cccs3)ccc2O1`, the relative growth was inactive: 1.02.

Turning to `CC(C)NC(=O)N(C)C[C@H]1Oc2ccc(NC(=O)Nc3ccc4c(c3)OCO4)cc2C(=O)N([C@H](C)CO)C[C@H]1C`, the relative growth is inactive: 0.993.

Take `NCc1ccccc1-n1cncn1`: the relative growth is inactive: 1.

Take `CCOC(=O)c1c(CNCCN(CC)CC)n(-c2ccccc2)c2cc(Br)c(OC)cc12`: the relative growth was inactive: 0.978.

Turning to `Cc1noc(C)c1NC(=O)Nc1ccc2c(c1)C(=O)N([C@H](C)CO)C[C@H](C)[C@H](CN(C)CC1CCCCC1)OCCCC[C@@H](C)O2`, the relative growth is inactive: 0.982.

With `NCCCC[C@@H]1NC(=O)[C@H](CCC(=O)O)NC(=O)c2cc([N+](=O)[O-])ccc2OCC[C@@H](C(=O)NCC(=O)O)NC1=O`, the relative growth was inactive: 1.02.

In the case of `C[C@@H]1CCCCO[C@@H](CN(C)C(=O)Nc2ccc(C(F)(F)F)cc2)[C@@H](C)CN([C@@H](C)CO)C(=O)c2cc(N(C)C)ccc2O1`, the relative growth is inactive: 0.991.

Take `CCOC(=O)/C(=N/O)C1=NNC(=N)SC1`: the relative growth is inactive: 0.959.

Consider `COC(=O)c1c(C)cc(O)cc1O`, for which the relative growth is inactive: 0.964.

For the molecule `NCCCn1ccnc1`, the relative growth was inactive: 1.

Regarding `C[C@@H]1CCCCO[C@H](CN(C)Cc2ccc(C(=O)O)cc2)[C@@H](C)CN([C@H](C)CO)C(=O)c2cc(NC(=O)NC3CCCCC3)ccc2O1`, the relative growth was inactive: 1.01.

Consider `C[C@@H]1CN([C@@H](C)CO)S(=O)(=O)c2ccc(-c3cccc(F)c3)cc2O[C@@H]1CN(C)S(C)(=O)=O`, for which the relative growth is inactive: 0.989.

For the molecule `C[C@H](CO)N1C[C@H](C)[C@@H](CN(C)S(=O)(=O)c2ccc(Cl)cc2)OCc2cnnn2CCCC1=O`, the relative growth is inactive: 0.99.

Take `C[C@@H]1COC(=O)N1`: the relative growth was inactive: 0.92.

`Cc1noc(C)c1NC(=O)Nc1ccc2c(c1)C(=O)N([C@H](C)CO)C[C@@H](C)[C@H](CN(C)C(=O)Nc1ccc(F)cc1)OCCCC[C@@H](C)O2`: the relative growth is inactive: 1.02.

With `Cc1cc(Oc2ccc3nc(COc4ccc(C[C@H]5SC(=O)NC5=O)cc4)n(C)c3c2)cc(C)c1N`, the relative growth is inactive: 1.02.

With `CO[C@H]1CN(C)C(=O)c2cc(NS(=O)(=O)CC(F)(F)F)ccc2OC[C@@H](C)N(Cc2nccs2)C[C@H]1C`, the relative growth is inactive: 0.984.

With `COc1ccc(-c2cnc3c(c2)C(=O)N([C@@H](C)CO)C[C@@H](C)[C@@H](CN(C)C(=O)Cc2ccncc2)O3)cc1`, the relative growth was inactive: 0.995.

For the molecule `C[C@@H]1CN([C@@H](C)CO)C(=O)c2cc(NS(=O)(=O)c3ccc(Cl)cc3)ccc2O[C@@H](C)CCCCO[C@H]1CN(C)CC1CC1`, the relative growth is inactive: 1.02.

`C[C@@H]1CCCCO[C@H](CN(C)C(=O)C2CCCCC2)[C@H](C)CN([C@@H](C)CO)C(=O)c2cc(NS(=O)(=O)c3ccc(Cl)cc3)ccc2O1`: the relative growth is inactive: 0.855.

`C[C@H](CO)N1C[C@H](C)[C@H](CN(C)Cc2ccc(C(F)(F)F)cc2)Oc2ccc(NS(C)(=O)=O)cc2CC1=O`: the relative growth was inactive: 0.954.

Consider `C[C@@H]1CN([C@H](C)CO)C(=O)c2cc(-c3cncnc3)cnc2O[C@@H]1CN(C)C(=O)Nc1ccc2c(c1)OCO2`, for which the relative growth was inactive: 1.01.

For `COc1ccc(NC(=O)Nc2ccc3c(c2)C(=O)N([C@H](C)CO)C[C@@H](C)[C@H](CN(C)C(=O)C2CCCCC2)OCCCC[C@H](C)O3)cc1`, the relative growth is inactive: 1.02.

For the molecule `O=C(CN1CCNCC1)c1ccc(F)cc1`, the relative growth was inactive: 1.

On to `C[C@H]1CN([C@@H](C)CO)C(=O)c2cc(C#Cc3ccccc3F)cnc2O[C@H]1CN(C)C(=O)C1CCOCC1`, for which the relative growth is inactive: 0.966.

`C[C@H]1CN([C@@H](C)CO)C(=O)c2cccc(NC(=O)Nc3cccc4ccccc34)c2O[C@H]1CN(C)C(=O)Nc1ccccc1`: the relative growth was inactive: 1.04.

For `CO[C@@H]1CN(C)C(=O)c2cc(NC(=O)C3CC3)ccc2OC[C@H](C)N(C(=O)Cc2ccccn2)C[C@@H]1C`, the relative growth was inactive: 1.04.

On to `C[C@@H]1CN([C@@H](C)CO)C(=O)c2cccc(NC(=O)c3ccc(-c4nccs4)cc3)c2O[C@H]1CN(C)Cc1ccc2c(c1)OCO2`, for which the relative growth is inactive: 1.04.

As for `O=C(Nc1c(Cl)cncc1Cl)c1ccc(OC(F)F)c(OCC2CC2)c1`, the relative growth is inactive: 1.09.

`CCOC(=O)OC(C)OC1=C(C(=O)Nc2ccccn2)N(C)S(=O)(=O)c2ccccc21` (stereo unspecified): the relative growth is inactive: 1.03.

As to `C[C@@H]1CN([C@H](C)CO)C(=O)c2cc(NC(=O)CCCN(C)C)ccc2O[C@@H](C)CCCCO[C@H]1CN(C)C(=O)Nc1cccc2ccccc12`, the relative growth was inactive: 0.971.

For the molecule `COc1ccc(CN(C)C[C@H]2Oc3ccc(NC(=O)Nc4cccc5ccccc45)cc3C(=O)N([C@H](C)CO)C[C@@H]2C)cc1`, the relative growth was inactive: 0.987.

Take `C[C@@H]1CN([C@H](C)CO)C(=O)c2cc(NC(=O)NC3CCCCC3)ccc2O[C@H]1CN(C)Cc1ccc(-c2ccccc2)cc1`: the relative growth was inactive: 1.07.

Regarding `COCCNC(=O)C[C@@H]1C[C@H]2c3cc(NS(C)(=O)=O)ccc3O[C@H]2[C@H](CO)O1`, the relative growth was inactive: 0.998.

In the case of `C[C@H](CO)N1C[C@H](C)[C@H](CN(C)S(C)(=O)=O)Oc2ccc(NS(=O)(=O)c3cccs3)cc2CC1=O`, the relative growth is inactive: 0.975.

`N[C@@H]1CC(=O)N(c2ccc(F)cc2)C1`: the relative growth was inactive: 0.99.

With `C[C@H]1CN([C@@H](C)CO)C(=O)Cc2cc(NC(=O)Nc3ccc(C#N)cc3)ccc2O[C@H]1CN(C)S(=O)(=O)c1ccc(Oc2ccccc2)cc1`, the relative growth was inactive: 1.03.

In the case of `O=C(CCCCCNC(=O)OCc1ccc(CN(C(=O)Nc2ccccc2)[C@@H](Cc2ccccc2)Cn2cc(-c3ccccn3)nn2)cc1)NO`, the relative growth was inactive: 0.983.

For the molecule `C[C@@H]1CCCCO[C@H](CN(C)C(=O)C2CCCCC2)[C@@H](C)CN([C@@H](C)CO)C(=O)c2cc(NC(=O)Nc3ccc(C(F)(F)F)cc3)ccc2O1`, the relative growth was inactive: 0.989.

In the case of `COc1ccc(CN2C[C@H](C)[C@@H](OC)CN(C)C(=O)c3cc(NC(=O)c4nc5ccccc5s4)ccc3OC[C@@H]2C)cc1`, the relative growth was inactive: 1.01.

For the molecule `C[C@@H]1CCCCO[C@@H](CN(C)C(=O)CCC(F)(F)F)[C@@H](C)CN([C@H](C)CO)C(=O)c2cc(NC(=O)Cc3ccccc3)ccc2O1`, the relative growth was inactive: 0.97.

Consider `CO[C@H]1CN(C)C(=O)c2ccc(NS(=O)(=O)c3cn(C)cn3)cc2OC[C@@H](C)N(Cc2cccc(F)c2)C[C@H]1C`, for which the relative growth was inactive: 0.97.

Consider `C[C@H]1CN([C@@H](C)CO)C(=O)c2cc(NS(=O)(=O)c3cn(C)cn3)ccc2O[C@H]1CN(C)C(=O)Nc1ccc(F)cc1`, for which the relative growth was inactive: 0.966.

In the case of `C[C@@H]1CCCCO[C@@H](CN(C)Cc2ccccc2)[C@@H](C)CN([C@@H](C)CO)C(=O)c2cc(NC(=O)Nc3ccc(F)cc3)ccc2O1`, the relative growth was inactive: 1.04.

On to `O=C(CN1CCOCC1)N[C@@H]1CC[C@H](CCn2cc(C3CCCC3)nn2)O[C@@H]1CO`, for which the relative growth is inactive: 0.991.

For `O=C(Nc1ccc(C(F)(F)F)cc1)Nc1ccc2c(c1)[C@@H]1C[C@@H](CC(=O)N3CCc4ccccc4C3)O[C@@H](CO)[C@@H]1O2`, the relative growth is inactive: 0.987.

Take `O=C(CCCCCNC(=O)OCc1ccc(CO[C@H]2C[C@@H](c3ccccc3)C=C(C(=O)N3CCN(Cc4ccccc4)CC3)O2)cc1)NO`: the relative growth is inactive: 0.918.

For the molecule `C[C@H](O)C#Cc1ccc2c(c1)O[C@@H](CN(C)C(=O)Nc1ccccc1)[C@@H](C)CN([C@H](C)CO)S2(=O)=O`, the relative growth is inactive: 1.02.
